How the values were obtained:
[1] = Tolerability of IV injection in tumor bearing mice; conditions: n=5, observed over 2 weeks
[2] = tested on: FR-positive KB tumors; assay: In vivo NIRF imaging of KB solid tumors; parameters: species or system nude mice; conditions: 24 hour time point, 2 nmole/mouse
Procedure: To induce solid tumors, 10^6 KB or HT1080 cells were injected subcutaneously into mammary fat pad and the lower abdomen of 30 nude mice (average weight 20 g). Within 7-17 days after implantations, each mouse developed 3-4 tumors of 1-14 mm (mean 4.1 mm) in size. To study tumor heterogeneity, tumors with different sizes were included in the experiments. For dual-tumor experiments, six mice were injected with 10^6 of KB and HT1080 cells on the ipsilateral and contralateral side respectively.
Thirty-six mice bearing KB and/or HT1080 tumors (n=60 each) were divided into three groups so that each group had 12 mice collectively having a total of 40 tumors; five mice collectively having a total of 18 KB tumors, five mice collectively having a total of 18 HT1080 tumors, and two mice with both KB and HT1080 tumors. […] NIRF imaging was performed before and 1, 4, 24, 48 hours after tail vein injection of the probes. In two animals from each group, NIRF images were also acquired daily up to 7 days (168 hours) to study the in vivo kinetics of the probe.

[3] = Absorbance maxima and extinction coefficients of fluorochrome dyes (spectrophotometer); type: physicochemical; conditions: solvent ethanol
Procedure: All of the new NIR fluorochrome dyes were purified twice by preparative HPLC, using a preparative HPLC instrument (Rainin, Woburn. Mass.) with a C18-RP preparative column (Vydec, Hesperia, Calif.) (flow rate=6 ml/min; eluant A, water with 0.1% TFA; eluant B, 90% of acetonitrile and 10% of eluant A; starting at 90% A for 5 min and then a linear gradient over 40 min to 50% A). The instrument's dual HPLC detector was set at 240 and 360 nm. The dyes were collected, and solvent was removed using a speed-vac concentrator (Savant, Holbrook, N.Y.). […]
About 20 mg of each fluorochrome dye was dissolved in 100 ml of deionized water. The absorbance was measured individually in three dilutions of the stock solution in deionized water or in 95% ethanol, using a Hitachi U-3000 spectrophotometer to determine the extinction coefficient. The fluorescence emission maxima and intensities of the dyes were obtained using a Hitachi F-4500 fluorophotometer, using dilute solutions in water and exciting at both the main absorption peak as well the short-wavelength shoulder of the main absorption peak. In the cases of NIR2, NIR4, NIR6, and NIR8, the quantum yields were calculated relative to a standard solution of the commercially available fluorochrome Cy5.5 (Amersham-Pharmacia, Piscataway, N.J.) with quantum yield of 0.29. […]

[4] = molecular target: T1, FR (folate receptor) of KB cells (Homo sapiens, UniProt P15328); assay: Competitive inhibition of 3H-folate binding in KB cells; conditions: 3H-folate 50 nM
T1 construct: endogenous in cells; host or cells: KB cells (human nasopharyngeal epidermoid carcinoma)
T1 sequence (P15328 25-234): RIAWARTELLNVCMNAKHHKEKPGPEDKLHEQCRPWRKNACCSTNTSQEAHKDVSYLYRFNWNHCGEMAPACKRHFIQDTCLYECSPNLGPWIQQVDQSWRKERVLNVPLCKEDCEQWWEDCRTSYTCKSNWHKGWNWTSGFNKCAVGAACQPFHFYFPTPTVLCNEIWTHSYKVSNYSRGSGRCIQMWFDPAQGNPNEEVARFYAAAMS
Procedure: To confirm receptor expression levels, cellular binding/internalization was determined using ^3H-folate. KB or HT1080 (10^6 cells) grown in 12-well plates were incubated at 37° C. for different times (1, 10, 30, 60, or 120 minutes) with 50 nM ^3H-folate (specific activity 34.5 Ci/mmol, American Radiolabeled Chemical Inc, St. Louis, Mo.). At the end of the incubation, cells were harvested using 0.1% Triton X-100 and the radioactivity (pmol/10^6 cells) was determined using a scintilltion counter.
The HT1080 and KB cell lines were first characterized in terms of their putative capability of ^3H-folate binding and uptake. KB and HT1080 tumor cells were incubated with ^3H-folate (50 nM) up to 120 minutes. Cellular binding and uptake was quantified by scintillation counting. […] At peak maximum 12 pmole of ^3H-folate /10^6 cells was observed under the chosen experimental conditions. […] Competition by the NMR2-folate probe was similar to that of unconjugated folic acid.

SMILES	tolerability of IV injection [1]	tumoral signal versus background [2]	λmax,abs [3] [nm]	bound 3H-folate in presence of competitor ([4]; competitor 50 nM (equimolar)) [pmole/10^6 cells]	decrease in bound 3H-folate ([4]; competitor 50 nM (equimolar)) [%]	binding of 3H-folate, % of its initial value ([4]; competitor 5000 nM) [%]	bound 3H-folate in presence of competitor ([4]; competitor 5000 nM) [pmole/10^6 cells]
CC[N+]1=C(C=CC=CC=C2N(CCCCS(=O)(=O)[O-])c3ccc(C(=O)O)cc3C2(C)C)C(C)(C)c2c1ccc1c(S(=O)(=O)[O-])cc(S(=O)(=O)[O-])cc21.[K+].[K+] [NIR2]	tolerated the IV injection of the compounds without any signs of physiological changes	did not result in appreciably higher signal than background	667				
Nc1nc2ncc(CNc3ccc(C(=O)N[C@@H](CCC(=O)O)C(=O)O)cc3)nc2c(=O)[nH]1 [folic acid]				4.97	60	15	1.86

Reference: patent US20050249668A1, “Nir-fluorescent cyanine dyes, their synthesis and biological use” (priority 2002, published 2005)
